From PubChem BioAssay AID652104 (National Center for Advancing Translational Sciences (NCATS), 2013)
Among all 410,000 compounds or so, about 7,200 (1.8%) were called active. The shares of active, inactive and inconclusive entries below differ from those in the screen. Calls follow the shape of the dose curve; as a rule, active = well fitted activation curve with a large enough effect; inconclusive = small, poorly fitted or top-dose-only effect, or another doubt; inactive = no such curve, though single readings can be large or run the other way. No potency is given beside an inconclusive call; the fits are too rough.

test: qHTS of TDP-43 Inhibitors; conditions: TDP-43 expressing yeast growth rescue, BacTiter-Glo, 24 h; series mostly up to 46.1 µM; also: nearly all actives have a fitted effect of over 50% in size
In short: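 Yeast cells expressing TDP-43 under galactose induction are exposed to compounds for 24 hr at 30 deg C. BacTiter-Glo luminescence measures growth, so protective compounds score as activators.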
Potency is read from the fitted curve at half-maximal effect; tags tell the direction and shape of the fitted curve.

SMILES	Potency
CC1=C(O)C(=O)C(C2=C(O)C(=O)C(C)=C(O)C2=O)=C(O)C1=O	inconclusive [activator, single point]
O=C(CCNS(=O)(=O)c1ccc2c(c1)CCCC(=O)N2)NCc1ccccc1Cl	inactive
CCC(=O)N1CCc2cc(CNC(=O)Nc3ccccc3Cl)ccc21	inactive
CC(Oc1cc(F)ccc1[N+](=O)[O-])C(=O)Nc1ccc(S(=O)(=O)N2CCCC2)cc1 (centres undefined)	inconclusive [activator, partial curve]
COc1cccc(NC(=O)CN(C)S(=O)(=O)c2cccs2)c1	inconclusive [activator, partial curve, poor fit]
N#Cc1ccccc1OCC(=O)Nc1cccc(S(=O)(=O)N2CCCC2)c1	inconclusive [activator, single point]
COc1cc(/C=C(\C#N)C(=O)N2CCc3ccccc32)ccc1O	inconclusive [activator, partial curve]
O=C(NC(=S)N1CCN(c2c(Cl)cccc2[N+](=O)[O-])CC1)c1cccs1	inconclusive [activator, single point]
Cc1nc(-c2cccc(NS(=O)(=O)c3cccc4ccccc34)c2)cs1	inconclusive [activator, single point]
O=C(NC1CCCCCC1)c1ccc(S(=O)(=O)NCc2ccco2)cc1	inactive
COc1cc(/C=N/c2oc(-c3ccccc3)cc2C#N)ccc1O	inconclusive [activator, partial curve]
Cc1ccc(-n2ncc3c(N4CCC5(CC4)OCCO5)ncnc32)c(C)c1	inconclusive [activator, single point]
COc1ccc(C)cc1NC(=O)Cn1c(=O)oc2ccccc21	inactive
Cc1cccc(C(=O)OCC(=O)Nc2ccccc2C(=O)NC2CC2)c1	inconclusive [activator, full curve, poor fit]
Cn1cccc1/C=C(\C#N)c1ccccc1	inconclusive [activator, single point]
O=C1CC(c2ccccc2)Cc2nc(NC3CC3)ncc21 (centres undefined)	inconclusive [activator, single point]
CCC(=O)N1N=C(c2cccs2)CC1c1ccc(C)cc1 (centres undefined)	active: 20 µM
COc1nc(N)nc2nc[nH]c12	inconclusive [activator, full curve, poor fit]
COc1ccc(C)c2sc(N3CCCC3)nc12	inconclusive [activator, partial curve]
